Laboratory results from publication PMC5900715 (Genes & Development, 2018).

Target: MDM2 NTD polypeptide (residues 10–139) (UniProt Q00987 10-139)
Assay: ITC

Chain of UniProt Q00987 (Q00987 10-139): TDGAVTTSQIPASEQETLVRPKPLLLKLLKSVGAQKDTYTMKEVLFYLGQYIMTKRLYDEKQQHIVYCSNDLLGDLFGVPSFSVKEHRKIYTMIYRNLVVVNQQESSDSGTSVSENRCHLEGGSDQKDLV

- Kd: 1700 nM
B1: mutant p53 CTD_([…]/L344A) (domain or fragment)
chain: not shown
